In PubChem BioAssay AID488969 (Vanderbilt High Throughput Screening Facility, 2010):
In all, about 110,000 compounds were measured (“z-score”: median about -0.1, highest 2% from about 2 on). Some of the results follow. Activity calls are given as the source filed them.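 The calls were made as follows: active = z-score in the third read window above 3 or below -3; inactive = the rest.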

molecular target: Metabotropic glutamate receptor 8 (Rattus norvegicus) (UniProt P70579); assay: rat mGluR8 modulators via GIRK flux, primary screen, cell-based, thallium flux, HTS (AID 488969); details: HEK293 rat mGluR8, GIRK (G protein-gated inwardly rectifying potassium channel) thallium flux, FluoZin2; at 10 µM; stronger effect = higher value; submaximal glutamate (EC20) added with thallium
Sequence of UniProt P70579 (P70579 whole entry, looked up): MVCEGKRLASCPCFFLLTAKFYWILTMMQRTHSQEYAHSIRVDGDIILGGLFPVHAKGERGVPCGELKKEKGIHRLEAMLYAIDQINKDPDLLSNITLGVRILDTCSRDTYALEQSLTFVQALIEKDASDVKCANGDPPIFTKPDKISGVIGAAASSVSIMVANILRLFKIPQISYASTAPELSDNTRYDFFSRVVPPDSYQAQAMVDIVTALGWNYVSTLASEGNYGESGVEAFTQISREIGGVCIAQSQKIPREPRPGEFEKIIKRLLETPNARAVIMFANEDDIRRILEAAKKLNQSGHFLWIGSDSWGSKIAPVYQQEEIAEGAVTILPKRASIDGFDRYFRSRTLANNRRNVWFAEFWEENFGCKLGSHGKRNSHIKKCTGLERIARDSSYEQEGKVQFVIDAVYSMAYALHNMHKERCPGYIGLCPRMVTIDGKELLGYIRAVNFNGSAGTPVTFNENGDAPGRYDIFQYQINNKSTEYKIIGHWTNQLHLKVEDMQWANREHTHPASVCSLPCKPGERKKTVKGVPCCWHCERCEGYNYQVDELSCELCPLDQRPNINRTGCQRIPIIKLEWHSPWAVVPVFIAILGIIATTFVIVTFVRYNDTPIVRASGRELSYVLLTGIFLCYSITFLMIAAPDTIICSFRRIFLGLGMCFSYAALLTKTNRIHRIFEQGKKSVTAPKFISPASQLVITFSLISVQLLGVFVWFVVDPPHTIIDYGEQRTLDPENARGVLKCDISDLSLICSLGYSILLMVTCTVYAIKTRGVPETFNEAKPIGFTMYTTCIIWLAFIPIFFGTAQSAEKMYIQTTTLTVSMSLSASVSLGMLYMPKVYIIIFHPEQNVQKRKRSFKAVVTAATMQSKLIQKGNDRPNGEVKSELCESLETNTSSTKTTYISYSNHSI

SMILES | z-score
Cc1ccc(Sc2ncccc2COC(=O)Nc2c(C)cccc2C)cc1 | -0.116
Cc1nnc(NC(=O)c2oc3cc(C)c(C)cc3c2C)s1 | -0.347
Cc1cc(NC(=O)c2cccc(S(=O)(=O)N3CCCCCC3)c2)n(-c2ccccn2)n1 | -0.374
CNc1nc(C)cc(C)c1S(=O)(=O)c1ccc(C)cc1 | -0.246
Cc1oc(-c2cccs2)nc1CS(=O)CC(=O)NCCCN1CC(C)CC(C)C1 (stereo not given) | -0.771
CC(C)CCOc1ccc(Cl)cc1CN1CCOCC1 | -0.105
COC(=O)Cc1cc(=O)n(-c2ccccc2)[nH]1 | -0.148
COc1ccc(NC(=S)N2CCN(Cc3ccco3)CC2)c(OC)c1 | -0.136
COc1cc(S(=O)(=O)N2CCCCCC2)ccc1Cl | -2.81
C=CCOC(=O)CSCC(NC(=O)OC(C)(C)C)C(=O)OCC (stereo not given) | -0.0461
O=c1c2ccccc2nc(N/N=C/c2ccccc2)n1O | 1.13
Cc1ccccc1-c1coc2cc(O)ccc2c1=O | 1.47
CCc1nc2ccccc2n1CC(O)COc1ccc(NC(C)=O)cc1 (stereo not given) | -0.194
O=C(NCc1cccs1)c1ccc(N2CCCC2=O)cc1 | 0.148
Cc1ccccc1NS(=O)(=O)c1ccc(N2CCCC2=O)cc1 | 0.383
Cc1ccc(CSCC(=O)Nc2ccc(F)cc2)cc1 | 0.284
COC(=O)c1[nH]c2ccc(Cl)cc2c1NC(=O)c1ccccc1[N+](=O)[O-] | -0.463
CCOc1ccc(NC(=O)c2ccccc2OCC(=O)c2ccc(C)cc2)cc1 | -0.0908
CCCCc1nc2ccccc2c(N)c1CCC (tested in a mixture with another compound) | -2.59
Cn1c(SCC(=O)N2CCCCC2)nnc1-c1ccc(S(=O)(=O)N2CCOCC2)cc1 | -0.416
CC(C)CN(CCOc1cccc(N2C(=O)C3=C(CCCC3)C2=O)c1)CC(C)C | -0.0907
O=C(NCC(c1cccnc1)N1CCN(c2ccccc2)CC1)C1CCCCC1 (stereo not given) | -0.559

SMILES | z-score
O=c1c2c(ncn1Cc1ccccc1)nc1n2CCC1 | -0.427
O=C(NC1CCCCC1)C(c1ccc2ncccc2c1)N(Cc1ccco1)C(=O)c1ccc2c(c1)OCCO2 (stereo not given) | -0.303
O=C(Nc1ccc(F)cc1F)c1ccc(-n2cncn2)nc1 | -0.0309
Cc1nn(Cc2ccc(Cl)cc2Cl)c(C)c1NC(=O)C1C2CCC(O2)C1C(=O)O (stereo not given) | 0.0518
O=C(/C=C/c1ccccc1)NCCc1ccc2c(c1)OCCO2 | 0.153
Cc1ccc2ncnc(NCCC(=O)O)c2c1 | 0.617
COc1cccc(C(=O)NCc2ccc(N3CCN(C(=O)OC(C)(C)C)CC3)cc2)c1 | 0.23
CCOc1ccc(C(C)C)cc1S(=O)(=O)n1nc(C)cc1C | -0.0606
CCCCOc1ccc(CSc2nncn2N)cc1 | -0.307
CCCCNc1oc(-c2ccc(OC)cc2)nc1S(=O)(=O)c1ccccc1 | 0.17
Cc1ccc(C)c(OCCn2cc(/C=C(\C#N)C(=O)NCc3ccco3)c3ccccc32)c1 | -0.227
Cc1ccc(-c2cccc(NC(=O)C3C4C=CC(C4)C3C(=O)O)c2)o1 (stereo not given) | -0.472
C=CCOc1cccc(CNn2cn[nH]c2=S)c1 | -0.179
COc1ccc(OC)c(NC(=O)CNC(=O)Cn2ccc3ccccc3c2=O)c1 | -0.0797
CC(C)(C)c1nn(-c2ccccc2)c2[nH]c(=O)c(CNCc3ccco3)cc12 | -0.626
COc1ccc(/C=N/Nc2cc(C)nc(-n3nc(C)cc3C)n2)c(OC)c1 | -0.205
CCn1c(CNC(=O)c2cccc(C)c2)nnc1SCC(=O)NC1CCCCC1C (stereo not given) | 0.161
CC(=N\O)/C(CN(C)C)=N/O | -0.301
N#Cc1c(N2CCN(C(=O)c3ccco3)CC2)nc(-c2ccccc2)c2c1CCCC2 | -0.665
CC(C)CCN(CCC(C)C)C/C(O)=C(\C#N)c1nc(-c2ccccc2)cs1 | -0.448
CCCN(CCC)CCNS(=O)(=O)c1ccc2c(c1)CCN2C(=O)C1CCC1 | -0.201
CNC(=O)c1ccccc1NC(=O)c1ccc(C)c(S(=O)(=O)N2CCCCC2)c1 | -0.727

SMILES | z-score
Cc1ccc(C2(CC(=O)O)CCOC(C)(C)C2)cc1 (stereo not given) | 0.918
COc1ccc(N2CCN(C(CNC(=O)c3ccco3)c3cccnc3)CC2)cc1 (stereo not given) | -0.782
Nc1nnnn1/N=C/c1cccc(O)c1 | -0.0397
CCOc1ccc(N(C(=O)/C=C/C(=O)Nc2cc(C)on2)C(C(=O)NC2CCCC2)c2ccccc2C)cc1 (stereo not given) | -2.8
CC1(C)CC(=O)C2=C(C1)c1c(ccc3ncccc13)NC2c1cccs1 (stereo not given) | -0.648
COc1ccc(OC(=O)CN2C(=O)C3C4CCC(C4)C3C2=O)cc1 (stereo not given) | -0.21
O=C1CCCCCN1C(=O)c1cccc(C(=O)N2CCCCCC2=O)c1 | 0.313
CCN(CC(=O)Nc1ccc(NC(C)=O)cc1)C(=O)C(c1ccccc1)c1ccccc1 | -0.166
O=S(=O)(c1cccc2nsnc12)N1CCN(C/C=C\c2ccccc2)CC1 | -0.124
O=S(=O)(c1ccc(Cl)cc1)n1nnc2ccccc21 | 0.0539
C=CCNC(=O)/C(=C\C=C\c1ccccc1)NC(=O)c1ccccc1Cl | 1.16
CO/N=C(\Cn1ncc(N2CCCC2)c(Cl)c1=O)c1ccc(Cl)cc1 | -2.69
FC(F)Oc1ccccc1NC(=S)Nc1cccc(Cl)c1Cl | active: 3.76
CC1(C)OC2OC(COC(=O)c3ccccc3)C3OC(C)(C)OC3C2O1 (stereo not given) | -0.215
CC12C(=O)N(NC(=O)c3ccncc3)C(=O)C1C1C=CC2C1 (stereo not given) | 0.0251
O=C(NCCCN1CCCC1=O)NC12CC3CC(CC(C3)C1)C2 | -0.0455
O=C(CSc1nnnn1-c1ccc2c(c1)OCCO2)Nc1nc2c(s1)CCCC2 | -0.372
CCOc1ccccc1OCc1nn2c(-c3ccc(C)cc3)nnc2s1 | -0.482
O=C1N/C(=C\c2ccc(O)cc2)C(=O)c2ccccc21 | -0.143
CN(CC(=O)Nc1cc([N+](=O)[O-])ccc1Cl)Cc1ccc(Br)cc1 | -0.349
O=C(CN1CCN(C(c2ccccc2)c2ccccc2)CC1)NC(=O)NCc1ccco1 | -1.55
CCOc1ccc2nc(/N=C/c3c(C)[nH]n(-c4ccc(C)cc4)c3=O)sc2c1 | active: 10.6

SMILES | z-score
O=C(Nc1ccc(N2CCCCC2)cc1)c1ccc(F)cc1 | 1.28
COc1ccccc1N1CCN(C(=O)C(C)N(c2ccccc2)S(C)(=O)=O)CC1 (stereo not given) | -0.277
CC(=O)c1cc2c(cc1NC(=O)c1cc3nc(C(C)C)cc(C(F)(F)F)n3n1)OCO2 | -0.248
CCOC(=O)N1CCN(Cc2cn3ccccc3n2)CC1 | -0.351
CCCCSc1nnc([C@H](C)NC(=O)OC(C)(C)C)o1 | 0.0965
CCn1c(SCC(=O)N(C(C)C)C(C)C)nnc1-c1cc2ccccc2cc1O | 1.16
CCOC(=O)c1cnc(SCc2nc(N)nc(Nc3ccccc3)n2)nc1N | -0.356
O=C(Nc1ccc2c(c1)OCCO2)c1ccc(CN2CCOCC2)cc1 | 0.15
Cn1c(=O)c2c(nc(SCC(=O)O)n2Cc2cccc(C(F)(F)F)c2)n(C)c1=O | -0.0568
CCOC(=O)c1sc(NC(=O)CSc2ccccn2)c(C#N)c1C | -0.182
O=C(CCC(=O)c1cccs1)OCC(=O)N1CCN(C(=O)c2ccco2)CC1 | -1.48
COc1ccc(C(=O)n2nc(-c3ccc(C)cc3)nc2N)cc1OC | 0.927
CCS(=O)(=O)N1CCN(C(=O)CC(C)C)CC1 | 0.466
COC(=O)Cc1cc(=O)n2[nH]cnc2n1 | 0.566
O=C(NCCN1CCCCCC1)C1CC(=O)N(CCc2ccccc2)C1 (stereo not given) | 0.636
Nc1nc2c3ccccc3nc(Cc3ccccc3)n2n1 | -0.0245
c1ccc(-c2cc3c(NCC4COc5ccccc5O4)ncnc3s2)cc1 (stereo not given) | -0.382
Cc1cccc(NC(=S)N2CCCCCC2)c1 | -0.151
CSc1nsc(SC)c1NC(=O)N1CCCCC1 | 0.516
COc1ccc(C2SCC(=O)N2c2nnc(C34CC5CC(CC(C5)C3)C4)s2)cc1 (stereo not given) | -0.937
CC(=NCC1CCNCC1)C1=C(O)CC(C)(C)CC1=O | 1.22
COc1ccc(S(=O)(=O)N/N=C(/C)c2cccc(NC(=O)c3ccccc3Cl)c2)cc1 | -0.264

SMILES | z-score
Cc1ccc(CCNC(=O)C2CCCN(C(=O)N(C)C)C2)cc1 (stereo not given) | -0.337
COc1ccc(C(C)=O)cc1COC(=O)c1ccc2c(c1)OCO2 | -0.198
COC(=O)c1c(NC(=O)c2ccco2)sc(C(=O)N2CCCC2)c1C | -0.0976
OCCn1c(SCCOc2ccccc2)nc2ccccc21 | -0.41
CCCCc1ccc(N2C(=O)[C@@H]3C(CC(N)=O)NC4(C(=O)Nc5ccc(F)cc54)[C@@H]3C2=O)cc1 (stereo not given in full) | -0.0237
Cc1ccnc(SCC(=O)Nc2sc3c(c2C#N)CCC(C(C)(C)C)C3)n1 (stereo not given) | 0.249
COCP(=O)(c1ccccc1)c1ccccc1 | -0.437
O=C1OC(OC(=O)c2ccccc2Br)C(N2CCOCC2)=C1Cl (stereo not given) | -0.307
COC(=O)c1sc2ccccc2c1NC(=O)c1cccs1 | -1.61
CS(=O)(=O)N(CC(=O)NCCC1=CCCCC1)C1CCCCC1 | 0.389
COc1cc(-c2nc(-c3ccc(NC(=O)c4ccc5c(c4)OCO5)cc3)no2)cc(OC)c1OC | 0.262
CCC(=O)Nc1ccc(S(=O)(=O)N2CCN(c3ccc(F)cc3)CC2)cc1 | 0.0336
C=C1c2ccccc2NC(=O)N1c1ccc(C)cc1 | 0.102
O=C(CSc1nnc(-c2cccs2)o1)NCC1CN(Cc2ccccc2)CCO1 (stereo not given) | 0.284
CC(C)(CO)NCC(O)COc1ccc2c(c1)CCC2 (stereo not given) | 0.00787
O=C(Cc1ccc(Br)cc1)NC1CCCCC1 | 0.571
O=C(NCC(=O)N(c1ccccc1)C(C(=O)NC1CCCC1)c1cccnc1)c1ccco1 (stereo not given) | -0.135
COC(=O)c1cn(CC(=O)N2C(C)CCCC2C)c2ccccc12 (stereo not given) | 1.68
COc1cccc(OC)c1OCCCSc1nc(C)cc(=O)[nH]1 | -0.254
CSc1ccccc1C(=O)NCc1ccc(S(N)(=O)=O)cc1 | -0.0297
Cc1[nH]c2ccccc2c1NC(=O)CN1CCN(c2cccc(C(F)(F)F)c2)CC1 | 0.104
Cc1c(N(C)C(=O)C23CC4CC(CC(C4)C2)C3)c(=O)n(-c2ccccc2)n1C | -0.293
